Results: the supplement of paper PMC11417369
± gives the standard deviation of the averaged measurements. Some of the results follow.

The sequences below were run on PfAP2-LT AP2 domain (GST-tagged) (assay: gcPBM binding intensity (ln(normalized median fluorescence intensity)); higher = stronger DNA binding).
Summary of the method: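 Binding intensity is the highest Masliner-normalised natural-log median intensity over replicate spots in either probe orientation. To obtain it, GST-tagged P. falciparum DNA-binding domains made in E. coli were incubated for 1 h on an Agilent 4 × 180k array of primer-extended double-stranded 36-bp intergenic genomic probes plus negative controls. Detection used Alexa488 anti-GST antibody with scanning at 488 nm.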

Row | Sequence | gcPBM binding intensity (ln)
1 | CTCAAATAATTTTTTACACACATTATTTGAAATAAG [CACACA_site1290] | 8.7 ± 0.3
2 | TTTTTTTTTAATATTTGTACACAACATGAAACATTT [XGTACX_site473] | 8.73 ± 0.58
3 | GTAATATATACAAAATGTACAAAACAATAACATGAT [XGTACX_site8575] | 9.2 ± 0.52
4 | ATCCAAACAAATAAAACATGCATAATATATATATAT [TGCATGCA_site766] | 9.16 ± 0.2
5 | TAAAATATTACGTGTACACATAAATAAAAATAAAAA [CACACA_site5066] | 8.89 ± 0.57
6 | TTTTATATTCCACAAAAAATTATATAATAATAGAAC [CACACA_negctrl_site1741] | 8.4 ± 0.38
7 | TATACATATGAAAATACACACATACATACCTATATA [CACACA_site6888] | 9.29 ± 0.36
8 | TATTTAACACCTTATACACACTTTCTTCCTTTTTTA [CACACA_site4590] | 8.96 ± 0.53
9 | TAATTGTACGCCAATACACACAGAATTATAATGTAG [CACACA_site6201] | 9.06 ± 0.32
10 | ATGCACTCATTGTGCACACGCATATTACGAAAAGAA [CACACA_site2638] | 9.2 ± 0.34
11 | AAAAAAAAAAAAAACACACACACACCCATACAAAAT [CACACA_site1446] | 10.12 ± 0.064
12 | AATAAATAAAAAACATGTACAAATATAATATAGCAT [XGTACX_site6429] | 9.22 ± 0.36
13 | TATATATATATGTGTATACACACCTGATAAAGGTAT [CACACA_site2653] | 9.56 ± 0.25
14 | AAGATTTGAAAAAATACACACAATAAAAAAATAAAA [CACACA_site3281] | 9.03 ± 0.7
15 | AAAAAAAAAAAGCACACACACATATGTGTATTTATA [CACACA_site6578] | 9.63 ± 0.23
16 | ACAAAATATACAAAATGTACAAAATTTACAAAATGT [XGTACX_site3544] | 8.93 ± 0.38
17 | TACTAGCAAATACATACACACACACCCATATACATA [CACACA_site9163] | 9.78 ± 0.23
18 | GATATTGAGAAAGGGTGTACAAGATATTATACTATA [XGTACX_site3598] | 8.79 ± 0.43
19 | AATAGAAAAAAATAAGTGCATTTTGGTATTCATCAT [GTGCAC_site9614] | 8.74 ± 0.5
20 | AAATTTATATTCATTTGTACGTAATTTAAATTATAC [XGTACX_site5870] | 8.77 ± 0.33
21 | ACATAAATAATAAAAACACACATATGTACATATATA [CACACA_site1913] | 9.14 ± 0.39
22 | TTTTATGTAATTATTTGTACATATGCCTCTTAAACT [XGTACX_site748] | 8.71 ± 0.49
23 | TTATATAGGCAGATGGTGCATCTATTTATAAGCAAC | 8.65 ± 0.42

Row | Sequence | gcPBM binding intensity (ln)
24 | AAAAATTAAAAGAAAATACACACCTGTGGGTGCTTA [CACACA_site1988] | 8.54 ± 0.47
25 | TGTATGTATTTTCAATGTACATAAAAAAAAAAAAAA [XGTACX_site4397] | 8.48 ± 0.28
26 | TATTTTTTTTGTTAGGTGCATTTACATTTATTTTTA | 8.77 ± 0.52
27 | AAAAAAAAAAGTTCTACACACACAAAAAAATATTTT [CACACA_site8725] | 9.14 ± 0.44
28 | ATATGAGAGAATAAAACACACAAAAAAAAAAAAAAA [CACACA_site2865] | 8.9 ± 0.4
29 | GTAGCCTTTCTTTATAAAGGCAAACAAACAAAAAAT [CACACA_negctrl_site1491] | 8.49 ± 0.33
30 | TAATAATCAAGTTAACGTACAAAATCATCTATAGAA [XGTACX_site5921] | 8.8 ± 0.49
31 | TTTTTAAAACATATCACACATATATATATATATATA [CACACA_site5991] | 9.36 ± 0.21
32 | TATTTTTATAAAAATCGTACAAGTGATCCAATTTTT [XGTACX_site4402] | 8.54 ± 0.42
33 | CCGTATTCAAAAAGGAGTACACAATTATATGTTATA [XGTACX_site641] | 8.69 ± 0.43
34 | TATAATATAATTAAAAGTACTTAAAAAAGAATGAAA [XGTACX_site1157] | 8.61 ± 0.53
35 | TGTTTATATAATATTCTACACACCAACAACAAACAT [CACACA_site8087] | 9.07 ± 0.29
36 | CGCGCACCCAGACACACACACACACCGATATATATA [CACACA_site8687] | 10.1 ± 0.48
37 | TAAATTATCTTTTTATGTACTTATTTTTATTATTTT [XGTACX_site3158] | 8.73 ± 0.55
38 | AAAAAAAAAAAAAGTACACACTTATAAAATATTATG [CACACA_site4639] | 8.76 ± 0.48
39 | TATTTTCAACATATTTGTACATATTTTATATTTTAA [XGTACX_site101] | 8.68 ± 0.38
40 | ATTATATTAGGTAATCAGTTAAATGTTTCCTTTTTA [CACACA_negctrl_site1229] | 8.56 ± 0.42
41 | AAAATATGGATTCATGATATTAAATTTAATTTAATG [XGTACX_negctrl_site214] | 8.38 ± 0.54
42 | ATATAAATAATGTTGACACACACAATAATCTTATTA [CACACA_site9197] | 9 ± 0.42
43 | GTTATACTCATATATACACACATATGTAAATATATA [CACACA_site5764] | 8.9 ± 0.33
44 | ATACGAAAAAAAAAAAGTACACAAAAATATCTACAT [XGTACX_site2051] | 8.88 ± 0.53
45 | TTTATATAATTTTGTGGTACTTATGTGTGTATATTA [XGTACX_site706] | 9.14 ± 0.44
46 | ATTTATTATATATACACACATACATATATATATATA [CACACA_site2159] | 9.245 ± 0.0071

Row | Sequence | gcPBM binding intensity (ln)
47 | ATAACAAAATAAAACACACACACAAATGTACTTATA [CACACA_site8768] | 9.57 ± 0.18
48 | AAAAAATTCTGGTACTGTACACATTTTTTTAAATTT [XGTACX_site6904] | 8.73 ± 0.43
49 | TGCTTTTATTTCTTCACACATATGTAAAAAAAAGAA [CACACA_site5906] | 8.45 ± 0.54
50 | ATTATGATTTTATAGAACTGAACATTTACATTAAAT [GTGCAC_negctrl_site192] | 8.6 ± 0.46
51 | TGCATACTAGCCAATTGTACATAATTTTATTTTAAA [XGTACX_site513] | 8.46 ± 0.48
52 | AAAAGGAACAGACACACACACATATATATATATATA [CACACA_site3587] | 10.3 ± 0.29
53 | AAAATAAATCTGAATGGGGTATAATATATCTTTGTT [CACACA_negctrl_site744] | 8.86 ± 0.31
54 | TATTATTATTATGGTAGTACATGTAGGTTATTAAAA [XGTACX_site5742] | 8.86 ± 0.38
55 | AATTGGGAAGGACATGCATGAGAAATTAATATTGCA [TGCATGCA_site424] | 9 ± 0.48
56 | ATATTTATAAATTGCACACAAATAATAACATTCTAT [CACACA_site2357] | 8.88 ± 0.34
57 | ACTTTGCTCTACAATGCATGCTCATTTAACAAGGCA [TGCATGCA_site676] | 8.8 ± 0.38
58 | ATATCTACTATACAACTGAGTGTAGAAAAATTAAAC [CACACA_negctrl_site1211] | 9 ± 0.4
59 | TATATTAAATGAAACAAACACACATAGCCTTTAAAT [CACACA_site1559] | 8.96 ± 0.32
60 | AACATACACATATACACACACACATATATACCTATA [CACACA_site6643] | 10 ± 0.31
61 | AAGAAAAAAAAAATTACACACTGCGGACATACACAA [CACACA_site4838] | 9.12 ± 0.42
62 | TCAATTTTACTTGTTTGTACATAAAATAATAAGGTT [XGTACX_site3732] | 8.46 ± 0.38
63 | ATATTTTGTTTTTGTTCTTTTTTTTTCTTTTTTTTT [CACACA_negctrl_site1342] | 8.77 ± 0.59
64 | TATGTAATGTTTACAACACACAAATTATAAATACAA [CACACA_site1771] | 8.83 ± 0.45
65 | ATATATATATATATATGTACATATTTTTATTTATAC [XGTACX_site2858] | 9.52 ± 0.085
66 | TATTTATATGTATATACATGCACATATATATGAAAC [TGCATGCA_site1005] | 8.84 ± 0.36
67 | CTATTTTATATGTGCACACATATACTCAGACAAATA [CACACA_site4761] | 9.26 ± 0.32
68 | ACCTATATACTAAATGCACACTTATATATTTATATA [CACACA_site5371] | 9.1 ± 0.4
69 | AAAAAAAAAAAAAAATGTACATATATATAAATATAT [XGTACX_site6768] | 8.56 ± 0.54

Row | Sequence | gcPBM binding intensity (ln)
70 | TGTATAAATATATGCACACATATATATATTTATATA [CACACA_site3473] | 8.85 ± 0.26
71 | GAGAAAAAAAAAAAAAAACACACGGTACATTCAAAG [CACACA_site1767] | 8.82 ± 0.49
72 | TCAATAAATGAATATGCATGCACGCTCTTTAGAGAT [TGCATGCA_site553] | 9.05 ± 0.25
73 | AAATTAATACATTATTGTACTTTTCATGTGCAGAAA [XGTACX_site8284] | 8.6 ± 0.42
74 | TAATTCGCATTTTATACACACATTCGAACCTTTTTT [CACACA_site7549] | 9.18 ± 0.43
75 | CATATTACATTAAATTGTACATATATATATATATAT [XGTACX_site3295] | 9.53 ± 0.3
76 | CGGATGAATATATATGCACACATCTTTTGTAAAAAT [CACACA_site3190] | 9.15 ± 0.42
77 | TATATATATATATATTGTACATTTACCAAATTGTGT [XGTACX_site5791] | 9.39 ± 0.4
78 | AATGTGCTCGCTATTACACACTCATTGGGATAAACT [CACACA_site7043] | 8.98 ± 0.41
79 | ATATAATATATATATTGTACATATATTTATAAGCAT [XGTACX_site3726] | 8.77 ± 0.35
80 | TTTTTTTTTTTTTGCACACTTAAATTTGGAGTGTAG [CACACA_site2345] | 8.81 ± 0.45
81 | TATATAAATAAATATACACACATATATAAATATACA [CACACA_site2982] | 8.96 ± 0.4
82 | TTTAATAATAATACTAGTACACATTCTTTATTATTT [XGTACX_site2671] | 8.79 ± 0.52
83 | TGAATTAAGATTTATTGTACATAATTTATACCATAT [XGTACX_site7034] | 8.71 ± 0.45
84 | TAAATTTATAGACACACACACATATAAATAAATATA [CACACA_site6530] | 9.71 ± 0.22
85 | AATATCTTAGTGGATACACACATATAAATGTGGATT [CACACA_site485] | 8.88 ± 0.39
86 | AAGATTTTCCTTGATAGTACACTTATGAAAATTTGT [XGTACX_site3047] | 8.68 ± 0.38
87 | ATATATTACGACTTCTGTACATAATATATAAAAGAA [XGTACX_site2353] | 8.76 ± 0.42
88 | TTTTTTTTTTTTTTTTTTTTTTTGTCTTATTTTTTT [GTGCAC_negctrl_site338] | 8.37 ± 0.6
89 | AAAGTAAAAAATCATAGTACACATTTAAATATATAT [XGTACX_site2323] | 8.9 ± 0.56
